Measurements: PubChem BioAssay AID1347120 (National Center for Advancing Translational Sciences (NCATS), 2019)
In all, about 390,000 compounds went through this assay and about 930 (0.24%) were called active. The inconclusive results got no clear call from the source; some entries with a clear call stand among them for comparison. The call rests on the fitted dose curve; in most records, active means well fitted activation curve with a large enough effect; inconclusive means small, poorly fitted or top-dose-only effect; inactive means no such curve, though single readings can be large or run the other way. Where the call is inconclusive, the potency comes from a doubtful curve fit.

assay: qHTS for Suppressors of FUS Proteinopathy: Primary screen using FUS-linked yeast assay; further: nearly all actives have a fitted effect of over 55% in size;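 on growth rescue (activation): plate controls were DMSO vehicle for no effect and reference control for full effect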; details: S. cerevisiae FUS-expressing, OD600, 24 h; Potency: growth rescue; growth rescue (activation): at 76.6 µM (top of the series)
How it was run: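 Yeast expressing FUS under galactose induction, OD 0.005 in 2% galactose medium; compounds in a dilution series, 24 h at 30C. Growth rescue by absorbance at 600 nm; CP55940 positive control, DMSO negative.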
Potency means the concentration at half of the fitted maximal effect; tags describe the fitted curve by direction and shape.

SMILES | growth rescue (activation) | Potency
O=C1CCC(=O)c2oc3ccccc3c2N1 | inconclusive: 62.7% [activator] | 
CCc1ccc(OCC(=O)Nc2cc(-c3nc4cc(C)ccc4o3)ccc2C)cc1 | inactive: -21% | 
O=C(CN1CCN(c2cccc(C(F)(F)F)c2)CC1)Nc1ccc2c(c1)OCCCO2 | inactive: 27.7% | 
Cc1ccc(-n2nc(-c3ccco3)cc2C(=O)NCc2cccnc2)cc1 |  | inconclusive: 8.91 µM [activator, partial curve, poor fit]
O=C(CSc1nnc(-c2ccc(Cl)cc2Cl)n1C1CCCCC1)N1CCCC1 |  | inconclusive: 5.01 µM [activator, full curve]
c1ccc2c(c1)CCN(c1ncnc3nc[nH]c13)C2 | inactive: -20.3% | 
CCOc1ccc(C(C(=O)NCC2CCCO2)N(C(=O)c2snc(C(N)=O)c2N)c2ccc(F)cc2)cc1 (stereo unspecified) |  | inconclusive: 35.5 µM [activator, single point]
CCOc1nc(OCC)nc(N2CCC(C)CC2)n1 | inactive: 5.97% | 
CC(C(=O)NCc1ccccc1)N1C(=O)C2CC=C(Cl)CC2C1=O (stereo unspecified) | inactive: -13.4% | 
O=C(COCc1cc(-c2ccc3c(c2)OCO3)on1)Nc1cc(C(F)(F)F)ccc1Cl |  | inconclusive: 50.1 µM [activator, single point]
COc1ccc(-c2c(C#Cc3ccsc3)c3cc(-c4ccc5c(c4)OCCO5)ccc3n2C)cc1 | inactive: -7.8% | 
Cc1snc(S(=O)(=O)/C(C#N)=N/Nc2ccc(C(F)(F)F)cc2)c1C#N |  | inconclusive: 7.94 µM [activator, partial curve]
CCCCc1nc2ccccc2c(=O)n1NC(=O)c1c(O)c2ccccc2n(C)c1=O | inactive: -12.6% | 
CCOC(=O)N1CCc2c(sc(NCc3cccs3)c2C(=O)Nc2ccc(OC)cc2OC)C1 |  | inconclusive: 35.5 µM [activator, single point]
CC(C)(C)OC(=O)NCCc1nnc(SCc2ccc(Cl)cc2)o1 |  | inconclusive: 50.1 µM [activator, partial curve, poor fit]
C[C@H](CO)N1C[C@H](C)[C@H](CN(C)S(=O)(=O)c2cn(C)cn2)Oc2ccc(NC(=O)Nc3ccc(C(F)(F)F)cc3)cc2CC1=O |  | inconclusive: 31.6 µM [activator, single point]
CCOc1ccc(CCNC(=O)c2ccc3c(c2)N(Cc2ccccc2F)C(=O)c2ccccc2S3=O)cc1OCC (stereo unspecified) |  | inconclusive: 15.8 µM [activator, partial curve, poor fit]
O=C(CC1N=C2c3ccccc3N=C(SCc3cccc(Cl)c3)N2C1=O)NCCc1ccccc1 (stereo unspecified) |  | inconclusive: 50.1 µM [activator, single point]
Cc1c2c(=O)n(-c3nc4ccccc4s3)nc-2cc(O)n1Cc1ccccc1 |  | inconclusive: 25.1 µM [activator, partial curve, poor fit]
O=C(/C=C/c1c(Cl)cccc1Cl)NCCCn1ccnc1 |  | inconclusive: 0.891 µM [activator, full curve, poor fit]
COc1ccc(C)cc1NC(=O)c1cc(S(=O)(=O)N2CCc3ccccc3C2)ccc1F | inactive: 28.5% | 
CCOC(=O)C1=C(C)NC(C)=C(C(=O)OCC)C1C(=O)OCC(=O)NC(C)c1ccccc1 (stereo unspecified) |  | inconclusive: 22.4 µM [activator, partial curve, poor fit]

SMILES | growth rescue (activation) | Potency
Cc1cc(F)ccc1NC(=S)NC1CCCC1 | inactive: 0.255% | 
Cc1ccc(-n2c(=O)c3c(c4cc(C)ccc4n3C)n(Cc3ccc(F)cc3)c2=O)cc1 | inactive: -26.1% | 
NNc1nc2c(-c3cccc(C(F)(F)F)c3)nnn2c2ccccc12 | inactive: 29.4% | 
CC(Oc1ccccc1)C(=O)N1CCN(S(=O)(=O)c2ccc(OC(F)(F)F)cc2)CC1 (stereo unspecified) |  | inconclusive: 20 µM [activator, partial curve]
O=C1NC[C@H](c2ccccc2)OC(=O)[C@@H](Cc2ccc(F)cc2)C/C=C\C[C@H]1CC(=O)N(CCO)Cc1ccccc1 |  | inconclusive: 20 µM [activator, partial curve, poor fit]
COc1ccc(NC(=O)N2CCCC(c3ccccc3)C2)cc1 (stereo unspecified) | inactive: -7.75% | 
CS(=O)(=O)N1CCN(c2ccc(C(=O)NC3C4CC5CC(C4)CC3C5)cc2[N+](=O)[O-])CC1 (stereo unspecified) |  | inconclusive: 28.2 µM [activator, single point]
Cc1cc(-c2c(C)[nH]n(-c3ccc(Cl)cc3)c2=O)n(-c2ccccc2)n1 |  | inconclusive: 50.1 µM [activator, single point]
Cc1cccc(C(=O)OCC(=O)N(C)CC(=O)Nc2ccc(Cl)c(C(F)(F)F)c2)c1 |  | inconclusive: 28.2 µM [activator, single point]
COc1ccccc1NC(=O)CSC1=Nc2ccccc2C2=NC(CC(=O)NCc3ccc4c(c3)OCO4)C(=O)N12 (stereo unspecified) |  | inconclusive: 50.1 µM [activator, single point]
Cn1cccc1C(=O)NC(=O)COC(=O)Cc1coc2ccc3ccccc3c12 | inconclusive: 101% [activator] | 
Brc1cc2c(cc1/C=N/Nc1nc(N3CCOCC3)nc(N3CCOCC3)n1)OCO2 |  | inconclusive: 31.6 µM [activator, partial curve, poor fit]
Cc1ccc(CNC(=O)c2sc3nc4n(c(=O)c3c2C)CCCCC4)cc1 | inactive: 34.4% | 
O=C(CCC1N=C2c3ccccc3N=C(SCC(=O)Nc3ccc(F)cc3)N2C1=O)NCc1cccs1 (stereo unspecified) |  | inconclusive: 25.1 µM [activator, partial curve, poor fit]
Cc1ccc(N2CCN(C(=O)NCc3noc4ccc(C)cc34)CC2)c(C)c1 |  | inconclusive: 39.8 µM [activator, single point]
COc1ccccc1NC(=O)C(Cc1ccccc1)NS(=O)(=O)c1cccc2nsnc12 (stereo unspecified) |  | inconclusive: 25.1 µM [activator, single point]
CN1c2ccccc2C(C)(C)C12C=Nc1c(cc(N3CCOCC3)c3ccccc13)O2 (stereo unspecified) |  | inconclusive: 50.1 µM [activator, single point]
Cc1ccsc1CN(C(=O)COc1cccc(C)c1C)C1CCS(=O)(=O)C1 (stereo unspecified) | inactive: 37.5% | 
CN1C(=O)C(C)(C)c2cc(S(=O)(=O)N3CCCC3C(=O)Nc3ccc(F)cc3)ccc21 (stereo unspecified) | inactive: 3.77% | 
COC(=O)c1ccc(Cl)cc1NC(=O)N(Cc1ccc(OC)cc1)C1CCN(C(C)=O)CC1 |  | inconclusive: 20 µM [activator, partial curve, poor fit]
CC(C)(C)n1nc2c(c1NC(=O)c1ccc(S(=O)(=O)N3CCCC3)cc1)CSC2 |  | active: 15.8 µM
CCCCOC(=O)c1cccc(NC(=O)/C=C/c2ccccc2Cl)c1 | inactive: 30.5% | 

SMILES | growth rescue (activation) | Potency
CC(C)(C)[C@H]1C=C(C(=O)Nc2ccccc2)O[C@@H](OCc2ccc(CO)cc2)C1 |  | inconclusive: 22.4 µM [activator, partial curve]
COC(=O)C1=C(O)/C(=C\c2ccc(CNS(=O)(=O)c3ccc(Cl)cc3)o2)N=C1C |  | inconclusive: 11.2 µM [activator, partial curve]
CCCCn1nnnc1C(c1ccccc1)N1CCN(c2ccc(C)cc2)CC1 (stereo unspecified) | inactive: 26% | 
CN(C)c1ccc(CC(=O)N2CCCC(c3cc(C(=O)Nc4ccc(F)c(Cl)c4)no3)C2)cc1 (stereo unspecified) |  | inconclusive: 50.1 µM [activator, single point]
CCOc1ccc(Nc2sc(C(=O)c3cccc(OC)c3)c(N)c2S(=O)(=O)c2ccccc2)cc1 |  | inconclusive: 7.08 µM [activator, partial curve, poor fit]
CC(C)OCCCn1c(-c2ccco2)nc2nc3ccccc3nc21 |  | inconclusive: 20 µM [activator, partial curve, poor fit]
Cc1ccc([N+](=O)[O-])cc1N=Nc1c(C)[nH]n(C(N)=S)c1=O | inactive: -11.1% | 
CS(=O)(=O)N1CCCCC1c1cc(C(=O)NCc2ccc(F)cc2)no1 (stereo unspecified) | inactive: -8.29% | 
CCOc1ccc(CNC(=O)Cn2ccc3cc(S(=O)(=O)N4CCCCC4)ccc32)cc1 |  | active: 15.8 µM
COc1ccc(F)cc1S(=O)(=O)n1nnc2ccccc21 | inconclusive: -82.4% [activator] | 
COc1ccc(C2/C=C\CN(C(=O)c3ccccc3)[C@H](Cc3ccccc3)C(=O)N2Cc2ccc(F)cc2)cc1 (stereo partly specified) |  | inconclusive: 35.5 µM [activator, single point]
O=C(CSc1ccccc1Cl)c1ccco1 | inactive: 23.4% | 
COc1ccc2c(c1)c(CC(=O)OC(C)C(=O)N(C)C)c(C)n2C(=O)c1ccc(Cl)cc1 (stereo unspecified) |  | inconclusive: 25.1 µM [activator, single point]
Oc1c(Br)cc(Br)cc1CNc1cnc2ccccc2c1 | inactive: 13.3% | 
c1ccc2c(-c3ccc4nncn4c3)cncc2c1 | inactive: -18.2% | 
NC(Cc1ccccc1)c1csc(Nc2ccc(C(=O)c3ccccc3)cc2)n1 (stereo unspecified) |  | inconclusive: 28.2 µM [activator, single point]
CCC(C(=O)NCc1cccnc1)c1ccccc1 (stereo unspecified) | inactive: 12.1% | 
CCCn1nc(C(=O)OCn2nnc3ccccc3c2=O)c2ccccc2c1=O | inactive: -0.791% | 
COc1cccc(NC(=O)CSC2=Nc3ccccc3C3=NC(CC(=O)NCc4ccc5c(c4)OCO5)C(=O)N23)c1 (stereo unspecified) |  | active: 25.1 µM
COc1ccccc1CNc1nc2cc(-c3ccc(OC)c(OC)c3)sc2c(=O)n1C |  | inconclusive: 28.2 µM [activator, single point]
COC(=O)[C@]12C[C@H](CC(=O)N3CCSCC3)C(=O)N(Cc3cccc4ccccc34)C1=C[C@H](C(C)(C)C)O[C@@H]2C |  | inconclusive: 31.6 µM [activator, partial curve, poor fit]
COc1cc(C)c(C(C)C)cc1S(=O)(=O)N1CCOCC1 |  | inconclusive: 11.2 µM [activator, single point]
